This is one part of the list. These are further read-outs of the screen, such as a control signal, another cell line or another target. No call is given for them.
Assays:
Assay in all cases: Primary Screen for Target Class Profiling of Small Molecule Inhibitors of Methyltransferases
[1] = biological target: Glycine N-methyltransferase (Homo sapiens) (UniProt Q14749); conditions: purified enzyme, MTase-Glo SAH luminescence; measured here: GNMT inhibition; at 40 µM; stronger effect = lower value
Outline: (§1)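 Each enzyme was reacted with SAM and its substrate, with compounds tested once at 40 uM; SAH formed was read by MTase-Glo luminescence.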

[2] = biological target: Guanidinoacetate N-methyltransferase (Homo sapiens) (UniProt Q14353); conditions: purified enzyme, MTase-Glo SAH luminescence; measured here: GAMT inhibition; at 40 µM; stronger effect = lower value
Outline: as §1

[3] = biological target: Histamine N-methyltransferase (Homo sapiens) (UniProt P50135); conditions: purified enzyme, MTase-Glo SAH luminescence; measured here: HNMT inhibition; at 40 µM; stronger effect = lower value
Outline: as §1

[4] = biological target: Nicotinamide N-methyltransferase (Homo sapiens) (UniProt P40261); conditions: purified enzyme, MTase-Glo SAH luminescence; measured here: NNMT inhibition; at 40 µM; stronger effect = lower value
Outline: as §1

[5] = biological target: Phenylethanolamine N-methyltransferase (Homo sapiens) (UniProt P11086); conditions: purified enzyme, MTase-Glo SAH luminescence; measured here: PNMT inhibition; at 40 µM; stronger effect = lower value
Outline: as §1
On the % scale 0 is the no-effect control and ±100 the full control effect.

Structure (SMILES) | activity change, negative = inhibition [1] | activity change, negative = inhibition [2] | activity change, negative = inhibition [3] | activity change, negative = inhibition [4] | activity change, negative = inhibition [5]
Cc1ccc(Cn2c(=O)c3ccccc3n3c(=O)n(CC(=O)c4ccc(C)cc4C)nc23)cc1 | 4.58% | 1.18% | 6.44% | 4.53% | 2.51%
C[C@]12C=CC(=O)C=C1CC[C@H]1[C@@H]3C[C@@H](O)[C@](O)(C(=O)CO)[C@@]3(C)C[C@H](O)[C@@]12F | -3.56% | 6.18% | -1.35% | -2.48% | 7.69%
Cc1ccc(C)c(N2CCN(CCN3C(=O)c4ccc(-c5ccco5)n4CC3(C)C(=O)NC3CCCC3)CC2)c1 (configuration not stated) | -5.09% | 3.78% | -2.2% | -2.52% | -3.51%
O=C1CC2CCCC(C1)N2C(=O)c1ccncc1 | -2.54% | -5.19% | -1.18% | -6.42% | -2.76%
N#Cc1ccc(COC[C@H]2O[C@@H](n3c(NCc4ccc(Cl)c(Cl)c4)nc4c(N)ncnc43)[C@H](O)[C@@H]2O)cc1 | -18.2% | -1.44% | -43.3% | -90.7% | -72.9%
C=Cc1ccc(Cn2nc3n(Cc4ccc(F)cc4)c(=O)c4ccccc4n3c2=O)cc1 | 2.99% | 4.31% | 6.4% | -5.63% | 1.36%
CNC(=O)[C@@H]1C[C@@H](O)CN1C1CCN(C(=O)C2(c3ccccc3)CC2)CC1 | -1.69% | 0.047% | 0.907% | -0.485% | -11.4%
CO[C@H]1C(=O)N(C(C)C)[C@H]1C1CCN(C(=O)C(C)C)CC1 | -6.62% | -3.99% | -0.735% | -3.82% | -0.375%
CCC(C)N1C(=O)c2cc3occc3n2CC1(C)C(=O)NC1CCCCCC1 (configuration not stated) | -2.22% | 2.32% | -2.15% | 0.63% | -7.01%
O=C(c1nc2ccccc2[nH]1)N1CCNc2cnc(Nc3ccc(-n4ccnc4)cc3)nc2C1 | -38% | -25.8% | -40% | -27.3% | -17.5%
CC1(C(=O)NC2CCCCC2)Cn2c(ccc2-c2ccco2)C(=O)N1C1CCCc2ccccc21 (configuration not stated) | -7.9% | 1% | -3.79% | -13.4% | -7.07%
C=C1CCC2C(C)(C)CC(=O)CC2(C)C1CCC(C)CCOC(C)=O (configuration not stated) | 0% | 9.12% | 9.53% | -9.44% | -0.303%
N#Cc1ccc(S(=O)(=O)N2CCC(C3CCNC3)CC2)cc1 (configuration not stated) | -3.67% | -3.76% | -4.58% | -11.3% | -10.3%
CC1CCN(S(=O)(=O)c2ccc3c(ccn3CCC(=O)N3CC(C)CC(C)C3)c2)CC1 (configuration not stated) | -0.442% | 3.16% | 2.88% | -12.8% | 0.866%
CC(C)NC(=O)Cn1ccc2cc(S(=O)(=O)N3CCCCC3)ccc21 | 7.68% | 0.796% | 8.49% | 5.86% | 4.26%
Cc1ccc2[nH]c(CN3CCC(c4cccc(C#N)c4)CC3)cc(=O)c2c1 | -8.94% | 0.248% | -6% | -26.4% | -32.4%
COc1ccc(OC)c(S(=O)(=O)N2CCCC(Cc3ncc(C)n3CC3CC3)C2)c1 (configuration not stated) | -3.88% | -4.78% | 6.12% | -9.53% | -0.355%
CC(O)C(O)/C=C/C=C/C(=O)O[C@@H]1C=C2COC(=O)[C@]2(O)[C@@]2(C)CCCC(C)(C)C12 (some centres not stated) | -0.122% | -5.07% | 2.25% | -14.8% | 0.187%
Cn1c(=O)c2ccc(C(=O)NC3CCCCC3)cc2n2c(SCc3ccccc3)nnc12 | 0.824% | 3.46% | 5.53% | 0.097% | 3.8%

Structure (SMILES) | activity change, negative = inhibition [1] | activity change, negative = inhibition [2] | activity change, negative = inhibition [3] | activity change, negative = inhibition [4] | activity change, negative = inhibition [5]
Cc1ccccc1NC(=O)N1Cc2c(sc3c2CCCC3)-n2cccc2C1c1ccc(F)cc1 (configuration not stated) | 1.99% | 0.248% | 4.04% | -5.5% | 1.3%
O=C(Nc1ccccc1)N1CCCC(C(=O)N2CCC(N3CCCC3=O)CC2)C1 (configuration not stated) | 0.356% | -1.84% | -0.163% | -0.148% | 0.909%
O=C(O)CCc1cc2ccoc2cc1O[C@@H]1O[C@H](CO)[C@@H](O)[C@H](O)[C@H]1O | 7.31% | 7.75% | 9.09% | -5.01% | 5.31%
COc1ccc(NC(=O)c2ccc(C(=N)N(C)C)cc2)c(C(=O)Nc2ccc(Cl)cn2)c1 | -3.26% | 3.74% | -22.8% | -9.81% | -5.03%
O=C(C[C@H]1NC(=O)c2ccccc2NC1=O)Nc1nc(-c2ccncc2)cs1 | -10.2% | -7.03% | -6.16% | -35.6% | -8.42%
CC[C@H](C)NC(=O)c1sc(=S)n2c1[nH]c(=O)c1cc(Cl)ccc12 | -81.8% | -63.5% | -80.2% | -78.1% | -87%
CCN(CCN(C)C)C(=O)CNCc1cc(C(N)=O)ccn1 | 5.99% | 7.97% | 9.45% | -1.78% | 9.04%
O=C(Cn1ccc2cc(S(=O)(=O)N3CCCCC3)ccc21)NCc1cccnc1 | 4.57% | 0.646% | 7.2% | 9.97% | 5.6%
COC(=O)c1cc2n(n1)CC(C)(C(=O)NC1CCCCC1)N(c1ccccc1C)C2=O (configuration not stated) | 8.3% | 0% | 9.69% | 11.2% | 6.95%
CCCn1c(=O)c2cc(Cl)ccc2n2c(SCC(=O)Nc3cc(Cl)ccc3OC)nnc12 | 1.48% | 0.99% | 6.08% | 4.44% | 1.29%
CSc1cccc(NC(=O)c2cc3n(n2)CC(C)(C(=O)NC2CCCCC2)N(C)C3=O)c1 (configuration not stated) | 3.51% | 0% | 0.262% | 3.84% | 0.188%
O=S(=O)(NCCn1c(-c2ccccc2)nc2ccccc21)c1cc(F)ccc1F | -6.72% | -4.04% | -0.998% | -15.5% | -3.34%
O=C1NC2(CCN(Cc3cccc4ccccc34)C2)OCc2ccccc21 (configuration not stated) | -25.4% | -9.49% | -5.3% | -15.7% | -15.1%
CO[C@H]1O[C@@H]2O[C@]3(C)CC[C@H]4[C@H](C)CC[C@@H]([C@H]1C)[C@@]24OO3 | 2.84% |  | 9.59% |  | 
CC[C@H]1CN(C(=O)NC2CCCCC2)CC[C@H]1CC(=O)NCc1ccco1 | -8.24% | -9.48% | -4.54% | -17.4% | 5.72%
O=C(NCc1ccc(Cl)cc1)[C@@H]1Cc2nc[nH]c2CN1Cc1cc2ccccc2o1 | -12.8% | -7.7% | -11.8% | -21.1% | -5%
COc1ccccc1CNC(=O)C1(C)Cn2nc(-c3ccccc3)cc2C(=O)N1c1ccc(C)c(C)c1 (configuration not stated) | 6.6% | 4.96% | 10.3% | 7.16% | -1.63%
CC(C(O)c1ccccc1)N(C)CCOC(c1ccccc1)c1ccccc1 (configuration not stated) | 1.33% | 18.3% | -15.4% | -11.8% | -1.91%
COCC(=O)N1CCC(Oc2ccccc2C(=O)N(C)Cc2ncccc2C)CC1 | -0.147% | -1.56% | -1.53% | -3.83% | -18.8%

— PubChem BioAssay AID1745853 (National Center for Advancing Translational Sciences (NCATS), 2022)
